Measured values reported in the supplement of paper PMC10126150.
Values marked as one replicate rest on one cluster of the flow cell; about a third of the high ones do not repeat.

Tested on: ATP
Assay: switch fluorescence ratio, 500 uM ATP over buffer (Cy3 cluster intensity, sum of 5 cycles each) (fold (ratio)); higher = stronger signal-on switching upon ATP binding; sequences stand for … in TCGTCGGCAGCGTCAGATGTGTATAAGAGACAGTTTTTTTTTTTTTTTTTTTTTTTTT…TC
Conditions: aptamer strand: ATP DNA aptamer (quencher-CACCTGGGGGAGTATTGCGGAGGAAGG + anchor), 100 nM annealed; ATP concentration: 500 uM; one replicate
In short: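 Switching-strand clusters labelled with Cy3 on a modified Illumina MiSeq flow-cell were annealed to 100 nM quencher-labelled ATP aptamer, imaged in selection buffer, and re-imaged after 15 min with 500 uM ATP at 22 °C. This was done over five cycles with NaOH stripping and re-annealing in between. The fluorescence ratio is summed target-cycle over summed buffer-cycle Cy3 intensity per cluster, averaged per switch-domain sequence, excluding clusters outside 100-1000 RFU.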
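Note: ATP exposure 15 min at 22 °C before imaging.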

| Sequence | switch fluorescence ratio |
| --- | --- |
| GACACGCCTT | 1.04 |
| GACACGCGGC | 1.12 |
| GACACTCAAA | 1 |
| GACAGAATCT | 1.04 |
| GACAGACCCG | 1.07 |
| GACAGACTGT | 1.01 |
| GACAGATTTT | 1.02 |
| GACAGCCACG | 1.06 |
| GACAGCGC | 1.12 |
| GACAGCGCCG | 0.994 |
| GACAGCGTAA | 1.01 |
| GACAGCTCAA | 1.04 |
| GACAGGAGTT | 1.02 |
| GACAGGCACT | 1.07 |
| GACAGTATAG | 0.987 |
| GACATAAATA | 1.02 |
| GACATACTCG | 1.11 |
| GACATATAGC | 1.02 |
| GACATATTGC | 1.1 |
| GACATCAGGG | 0.969 |
| GACATGAAAG | 1.01 |
| GACATTAGTA | 1.01 |
| GACATTATAA | 1.02 |
| GACCAATCGA | 1.1 |
| GACCAGGAGA | 1.11 |

| Sequence | switch fluorescence ratio |
| --- | --- |
| GACCAGGTAT | 1.18 |
| GACCATGCTC | 1.04 |
| GACCCCAAGC | 1.13 |
| GACCCCGGGA | 1.02 |
| GACCCCTGCT | 1.01 |
| GACCCGAGTT | 0.957 |
| GACCCGTTTT | 0.953 |
| GACCGAGTAT | 1.03 |
| GACCGCTTCT | 1.07 |
| GACCTAAGCA | 1.1 |
| GACCTAATCC | 1.16 |
| GACCTGCGGC | 1.01 |
| GACCTGTCGT | 0.97 |
| GACCTTACAA | 1.25 |
| GACCTTACCG | 1.54 |
| GACCTTACTA | 1.48 |
| GACCTTCATG | 1.03 |
| GACCTTGTCC | 1.07 |
| GACGATCAAT | 1.79 |
| GACGATGGAC | 2.07 |
| GACGATGTGG | 0.985 |
| GACGATTAAG | 1.01 |
| GACGCCTATC | 1.46 |
| GACGCCTGGT | 1.04 |
| GACGCCTGTC | 1.12 |

| Sequence | switch fluorescence ratio |
| --- | --- |
| GACGCTGAAA | 1.39 |
| GACGCTGCAT | 2.44 |
| GACGGAAGGA | 1.08 |
| GACGGCTCTG | 0.994 |
| GACGGGAGAA | 1.05 |
| GACGGGCGAT | 1.18 |
| GACGGGTCTG | 0.975 |
| GACGGTATT | 1.09 |
| GACGGTGGTG | 0.934 |
| GACGTATGGA | 1.04 |
| GACGTCCTCA | 1 |
| GACGTCTCTT | 1.02 |
| GACGTTGCGC | 0.904 |
| GACGTTGGCT | 0.995 |
| GACGTTTGG | 0.982 |
| GACTAACCAG | 1.02 |
| GACTAACTTG | 1.04 |
| GACTACACGT | 1.47 |
| GACTACAGAC | 1.15 |
| GACTATAATG | 1.05 |
| GACTATGGCC | 0.991 |
| GACTATGTA | 1.06 |
| GACTCAAGT | 1.02 |
| GACTCAGGG | 0.954 |
| GACTCATTAT | 0.999 |

| Sequence | switch fluorescence ratio |
| --- | --- |
| GACTCGTGGG | 1.01 |
| GACTCGTGTC | 0.989 |
| GACTGAGCCA | 1.07 |
| GACTGCATAA | 1.37 |
| GACTGCCCCA | 1.21 |
| GACTGGATTC | 1.02 |
| GACTGGGCCC | 0.985 |
| GACTGTCTGA | 1 |
| GACTGTTGAT | 1 |
| GACTTAATCT | 1.05 |
| GACTTGCGGG | 1 |
| GACTTGGCCG | 0.986 |
| GACTTGGGAA | 0.968 |
| GACTTGGTTC | 1 |
| GACTTGTGGC | 1 |
| GACTTTAATG | 0.932 |
| GACTTTACAG | 1.02 |
| GACTTTACTA | 1.25 |
| GACTTTGCAT | 1.27 |
| GACTTTTGTT | 0.909 |
| GAGAAACCTA | 1.13 |
| GAGAACCTAA | 0.972 |
| GAGAACTTTT | 0.984 |
| GAGAAGACGG | 1 |
| GAGAATACCC | 1.07 |

| Sequence | switch fluorescence ratio |
| --- | --- |
| GAGAATCACC | 1.03 |
| GAGACACCTT | 1.11 |
| GAGACCAGAA | 0.999 |
| GAGACGACTC | 0.97 |
| GAGACGGACA | 1.2 |
| GAGACGTTTC | 0.948 |
| GAGACTTGAG | 0.999 |
| GAGAGAGAAA | 1 |
| GAGAGAGAGG | 1.03 |
| GAGAGATGAT | 1.28 |
| GAGAGCCTA | 0.975 |
| GAGAGTCATG | 1.03 |
| GAGATAGTTG | 1 |
| GAGATCCTGT | 0.989 |
| GAGATTAAGG | 1.01 |
| GAGATTAGGG | 1.02 |
| GAGATTCAAC | 1.05 |
| GAGATTTAAC | 1.07 |
| GAGCAAGAAC | 1.36 |
| GAGCAATCT | 2.85 |
| GAGCACCGCC | 1.07 |
| GAGCACGGAA | 1.1 |
| GAGCAGTTAG | 1.17 |
| GAGCATCAGG | 0.98 |
| GAGCATCGAT | 1.01 |

| Sequence | switch fluorescence ratio |
| --- | --- |
| GAGCATCTAA | 1.02 |
| GAGCCAGACT | 1.07 |
| GAGCCGGGA | 1.04 |
| GAGCCGGGGG | 0.878 |
| GAGCCGGTAG | 1.02 |
| GAGCCGTTCA | 0.989 |
| GAGCGAGGGT | 0.991 |
| GAGCGATCAC | 1.22 |
| GAGCGGAGGT | 0.984 |
| GAGCGTGGTC | 0.965 |
| GAGCTATTAC | 3.19 |
| GAGCTCAGTC | 1.01 |
| GAGCTCTGCA | 1.06 |
| GAGCTCTTGA | 0.98 |
| GAGCTGGTGT | 1.01 |
| GAGCTGTACT | 1.68 |
| GAGCTTCCTG | 1.38 |
| GAGCTTTACA | 1.02 |
| GAGGACCTC | 1.1 |
| GAGGACTTG | 1.09 |
| GAGGAGCGT | 0.977 |
| GAGGAGTGGG | 0.997 |
| GAGGCACGCG | 1.02 |
| GAGGCGACAG | 1.03 |
| GAGGCGCACA | 1.02 |

| Sequence | switch fluorescence ratio |
| --- | --- |
| GAGGCGTGTC | 1.04 |
| GAGGCTGCTA | 1.04 |
| GAGGGACTT | 1 |
| GAGGGATCGT | 0.978 |
| GAGGGCCACG | 1.05 |
| GAGGGCCGT | 0.972 |
| GAGGGCCTAG | 0.971 |
| GAGGGCTCTA | 1.04 |
| GAGGGGAAAG | 1.06 |
| GAGGGGCAAC | 1.03 |
| GAGGGGCACC | 1 |
| GAGGGGGCT | 0.98 |
| GAGGGGTAAC | 0.98 |
| GAGGGTTGTC | 0.967 |
| GAGGTACGGT | 1.03 |
| GAGGTCGCGG | 0.989 |
| GAGGTTAACG | 1.04 |
| GAGGTTACAA | 1.03 |
| GAGGTTACT | 1.02 |
| GAGGTTCCAA | 0.979 |
| GAGGTTGAAT | 0.998 |
| GAGGTTGACT | 0.986 |
| GAGTAAAGTA | 0.967 |
| GAGTACCGAT | 0.973 |
| GAGTACTTAA | 1.01 |

| Sequence | switch fluorescence ratio |
| --- | --- |
| GAGTATAGAC | 1.04 |
| GAGTATAGCG | 0.989 |
| GAGTATCGCA | 1.05 |
| GAGTATGGT | 1.01 |
| GAGTCAACAT | 1 |
| GAGTCATCGT | 1 |
| GAGTCCAGTG | 1.33 |
| GAGTCCCTTT | 1.01 |
| GAGTCGAAGA | 0.989 |
| GAGTCGACAA | 1.03 |
| GAGTCGGGTG | 1.04 |
| GAGTCTGCTA | 1.69 |
| GAGTCTGTTG | 0.998 |
| GAGTGAGCGA | 0.97 |
| GAGTGATGGT | 0.998 |
| GAGTGATTTC | 1.03 |
| GAGTGGACGT | 1.02 |
| GAGTGGCGCG | 0.999 |
| GAGTTAAAAA | 0.918 |
| GAGTTAGCCT | 0.981 |
| GAGTTAGGTA | 0.989 |
| GAGTTATCTC | 0.99 |
| GAGTTGACAG | 0.984 |
| GAGTTTATAG | 1.01 |
| GAGTTTTAAT | 1.05 |
